Measurements taken from patent publication US7592316B2, “Peptides as NS3-serine protease inhibitors of hepatitis C virus” (Schering Corporation, priority 2000, dated 2009).

These molecules were tested against HCV NS3/NS4A protease (strain 1a) (Hepatitis C virus genotype 1a, UniProt P27958) (assay: biochemical). Conditions: Table 5; HCV NS3/NS4A protease, spectrophotometric assay, 30° C., pH 6.5; read-out: Ki* Range.

SMILES | Ki
CCCC(NC(=O)[C@@H]1[C@@H]2[C@H](CN1C(=O)[C@@H](NC(=O)NC(C)(C)C)C1CCCCC1)C2(C)C)C(=O)C(N)=O (some centres unmarked) | 1 to 100 nM
CC1(C)[C@@H]2[C@@H](C(=O)NC(CC3CC3)C(=O)C(N)=O)N(C(=O)[C@@H](NC(=O)NC3CCCCC3)C3CCCCC3)C[C@@H]21 (some centres unmarked) | 1 to 100 nM
CCCC(NC(=O)C1C2C(CN1C(=O)C(NC(=O)OC(C)(C)C)C(C)(C)C)C2(C)C)C(=O)C(=O)NCCc1ccccn1 (centres unmarked) | > 1000 nM
C=CCNC(=O)C(=O)C(CCC)NC(=O)[C@@H]1[C@H]2[C@@H](CN1C(=O)[C@@H](NC(=O)OC(C)(C)C)C1Cc3ccccc3C1)C2(C)C (some centres unmarked) | 101 to 1000 nM
C=CCNC(=O)C(=O)C(CCC)NC(=O)[C@@H]1[C@@H]2[C@H](CN1C(=O)[C@@H](NS(=O)(=O)C(C)C)C(C)(C)C)C2(C)C (some centres unmarked) | > 1000 nM
C=CCNC(=O)C(=O)C(CCC)NC(=O)[C@@H]1[C@@H]2[C@H](CN1C(=O)[C@@H](NC(=O)OC(C)C(C)C)C(C)(C)C)C2(C)C (some centres unmarked) | 101 to 1000 nM
C=CCCC(NC(=O)[C@@H]1C2C(CN1C(=O)[C@@H](NC(=O)OC(C)(C)C)C(C)(C)C)C2(C)C)C(=O)C(=O)NCCCOCC (some centres unmarked) | > 1000 nM
C=CCC(NC(=O)[C@@H]1[C@@H]2[C@H](CN1C(=O)[C@@H](NC(=O)OC(C)(C)C)C1CCCCC1)C2(C)C)C(=O)C(=O)NCC(=O)NCc1ccc(C)cc1 (some centres unmarked) | 101 to 1000 nM
C=CCCC(NC(=O)[C@@H]1C2C(CN1C(=O)[C@@H](NC(=O)OC(C)(C)C)C1CCCCC1)C2(C)C)C(=O)C(=O)NCC=C (some centres unmarked) | 101 to 1000 nM
C=CCNC(=O)C(=O)C(CCC)NC(=O)[C@@H]1CC(C)(C)CN1C(=O)[C@@H](NC(=O)O[C@H](C)C(C)C)C(C)(C)C (some centres unmarked) | > 1000 nM
CCCC(NC(=O)[C@@H]1[C@H]2[C@@H](CN1C(=O)[C@@H](NC(=O)OC(C)(C)C)C(C)(C)C)C2(C)C)C(=O)C(=O)NCCCCc1ccccc1 (some centres unmarked) | > 1000 nM
C=CCNC(=O)C(=O)C(CCC)NC(=O)[C@@H]1[C@H]2[C@@H](CN1C(=O)[C@@H](NC(=O)OC(C)C(C)C)C1Cc3ccccc3C1)C2(C)C (some centres unmarked) | 101 to 1000 nM
C=CCCC(NC(=O)[C@@H]1[C@H]2[C@@H](CN1C(=O)[C@@H](NC(=O)OC(C)(C)C)C(C)(C)C)C2(C)C)C(=O)C(=O)NCCCNC(=O)OC(C)(C)C (some centres unmarked) | 101 to 1000 nM
C=CCCC(NC(=O)[C@@H]1[C@H]2[C@@H](CN1C(=O)[C@@H](NC(=O)OC(C)(C)C)C(C)(C)C)C2(C)C)C(=O)C(=O)NCCNC(=O)OC(C)(C)C (some centres unmarked) | > 1000 nM
C=CCCC(NC(=O)[C@@H]1[C@@H]2[C@H](CN1C(=O)[C@@H](NC(=O)OC(C)(C)C)C1CCCCC1)C2(C)C)C(=O)C(=O)NCCC(=O)OC(C)(C)C (some centres unmarked) | 101 to 1000 nM
C=CCNC(=O)C(=O)C(CCC)NC(=O)[C@@H]1C[C@H](c2ccccc2)CN1C(=O)[C@@H](NC(=O)OC(C)(C)C)C(C)(C)C (some centres unmarked) | > 1000 nM
C=CCNC(=O)C(=O)C(CCC)NC(=O)C1C2C(CN1C(=O)[C@H](NC(=O)OC(C)(C)C)C1CCCC(C(=O)OC(C)(C)C)C1)C2(C)C (some centres unmarked) | 101 to 1000 nM
C=CCCC(NC(=O)[C@@H]1[C@@H]2[C@H](CN1C(=O)[C@@H](NC(=O)OC(C)(C)C)C1Cc3ccccc3C1)C2(C)C)C(=O)C(=O)NCC=C (some centres unmarked) | 101 to 1000 nM
CCCC(NC(=O)[C@@H]1[C@H]2[C@@H](CN1C(=O)C(NC(=O)OC(C)(C)C)C(C)(C)C)C2(C)C)C(=O)C(=O)NCC1CC1c1ccccc1 (some centres unmarked) | > 1000 nM
C=CCNC(=O)C(=O)[C@@H](CCC)NC(=O)[C@@H]1[C@@H]2[C@H](CN1C(=O)[C@@H](NC(=O)O[C@H](C)C(C)C)C1CCCCC1)C2(C)C | 101 to 1000 nM

Same assay, conditions: Table 6; HCV NS3/NS4A protease, 30° C., pH 6.5; read-out: Ki*

SMILES | Ki
C=CCNC(=O)C(=O)C(CCC)NC(=O)[C@@H]1[C@@H]2[C@H](CN1C(=O)[C@@H](NC(=O)O[C@H]1CCC[C@@H]1C)C1CCCCC1)C2(Cl)Cl (some centres unmarked) | 1 to 100 nM
C=CCNC(=O)C(=O)C(CC1CCC1)NC(=O)[C@@H]1[C@@H]2[C@H](CN1C(=O)[C@@H](NC(=O)OC(C)(C)C)C(C)(C)C)C2(Cl)Cl (some centres unmarked) | 101 to 1000 nM
CC(C)(C)NC(=O)N[C@H](C(=O)N1C[C@H]2[C@@H]([C@H]1C(=O)NC(CC1CC1)C(=O)C(=O)NCC(=O)NCc1ccccc1)C2(C)C)C(C)(C)C (some centres unmarked) | 1 to 100 nM
CC(C)(C)[C@H](NC(=O)OC(C)(C)C(F)(F)F)C(=O)N1C[C@H]2[C@@H]([C@H]1C(=O)NC(CC1CC1)C(=O)C(=O)NCC(=O)NCc1ccccc1)C2(C)C (some centres unmarked) | 1 to 100 nM
C=CCNC(=O)C(=O)C(CC(F)(F)F)NC(=O)[C@@H]1[C@@H]2[C@H](CN1C(=O)[C@@H](NC(=O)OC(C)(C)C)C(C)(C)C)C2(C)C (some centres unmarked) | 101 to 1000 nM
CC(C)(C)OC(=O)N[C@H](C(=O)N1C[C@H]2[C@@H]([C@H]1C(=O)NC(CC(F)(F)F)C(=O)C(=O)NCc1ccccc1)C2(C)C)C(C)(C)C (some centres unmarked) | 101 to 1000 nM
C=CCCC(NC(=O)[C@@H]1[C@@H]2[C@H](CN1C(=O)[C@@H](NC(=O)NC(C)(C)C)C(C)(C)C)C2(C)C)C(=O)C(=O)NCC(=O)OC(C)(C)c1ccccc1 (some centres unmarked) | 1 to 100 nM
C=CCCC(NC(=O)[C@@H]1[C@@H]2[C@H](CN1C(=O)[C@@H](NC(=O)NC(C)(C)C)C(C)(C)C)C2(C)C)C(=O)C(=O)NCCC(=O)OC(C)(C)C=C (some centres unmarked) | 1 to 100 nM
C=CCCC(NC(=O)[C@@H]1[C@@H]2[C@H](CN1C(=O)[C@@H](NC(=O)NC(C)(C)C)C(C)(C)C)C2(C)C)C(=O)C(=O)NCCS(=O)(=O)C(C)(C)C (some centres unmarked) | 101 to 1000 nM
C=CCCC(NC(=O)[C@@H]1[C@@H]2[C@H](CN1C(=O)[C@@H](NC(=O)NC(C)(C)C)C(C)(C)C)C2(C)C)C(=O)C(=O)NCCS(=O)(=O)c1ccccc1 (some centres unmarked) | 1 to 100 nM
C=CCCC(NC(=O)[C@@H]1[C@@H]2[C@H](CN1C(=O)[C@@H](NC(=O)NC(C)(C)C)C(C)(C)C)C2(C)C)C(=O)C(=O)NCC(=O)NCc1ccccc1 (some centres unmarked) | 1 to 100 nM
C=CCCC(NC(=O)[C@@H]1[C@@H]2[C@H](CN1C(=O)[C@@H](NC(=O)OC(C)(C)C)C1CCCCC1)C2(C)C)C(=O)C(=O)NCCS(=O)(=O)NCC1CC1 (some centres unmarked) | 1 to 100 nM
C=CCCC(NC(=O)[C@@H]1[C@@H]2[C@H](CN1C(=O)[C@@H](NC(=O)OC(C)(C)C)C1CCCCC1)C2(C)C)C(=O)C(=O)NCCS(=O)(=O)NCc1ccccc1 (some centres unmarked) | 1 to 100 nM
C=CCCC(NC(=O)[C@@H]1[C@@H]2[C@H](CN1C(=O)[C@@H](NC(=O)OC(C)(C)C)C1CCCCC1)C2(C)C)C(=O)C(=O)NCCS(=O)(=O)N(C)C (some centres unmarked) | 1 to 100 nM
CCCC(NC(=O)[C@@H]1[C@@H]2[C@H](CN1C(=O)[C@@H](NC(=O)OC(C)(C)C)C1CCCCC1)C2(C)C)C(=O)C(=O)NCC(=O)OC(C)(C)c1ccccc1 (some centres unmarked) | 1 to 100 nM
C#CCCC(NC(=O)[C@@H]1[C@@H]2[C@H](CN1C(=O)[C@@H](NC(=O)OC(C)(C)C)C1CCCCC1)C2(C)C)C(=O)C(=O)NCCC=C (some centres unmarked) | 1 to 100 nM
CCCC(NC(=O)[C@@H]1[C@@H]2[C@H](CN1C(=O)[C@@H](NC(=O)OC(C)(C)C)C1Cc3ccccc3C1)C2(C)C)C(=O)C(=O)N[C@@H](C)c1ccccc1 (some centres unmarked) | 1 to 100 nM
CCCC(NC(=O)[C@@H]1[C@@H]2[C@H](CN1C(=O)[C@@H](NC(=O)OC(C)(C)C)C1Cc3ccccc3C1)C2(C)C)C(=O)C(=O)NCCC(=O)N(C)C(C)(C)C (some centres unmarked) | 101 to 1000 nM

SMILES | Ki
CCCC(NC(=O)[C@@H]1[C@@H]2[C@H](CN1C(=O)[C@@H](NC(=O)OC(C)(C)C)C1Cc3ccccc3C1)C2(C)C)C(=O)C(=O)NCCC(=O)NC(C)(C)C (some centres unmarked) | 101 to 1000 nM
C=CCCC(NC(=O)[C@@H]1[C@@H]2[C@H](CN1C(=O)[C@@H](NC(=O)NC(C)(C)C)C(C)(C)C)C2(C)C)C(=O)C(=O)NCCS(C)(=O)=O (some centres unmarked) | 101 to 1000 nM
CC(C)(C)OC(=O)N[C@H](C(=O)N1C[C@H]2[C@@H]([C@H]1C(=O)NC(CC1CC1)C(=O)C(=O)NCC(=O)OC(C)(C)c1ccccc1)C2(C)C)C(C)(C)C (some centres unmarked) | 1 to 100 nM
CC(C)(C)OC(=O)N[C@H](C(=O)N1C[C@H]2[C@@H]([C@H]1C(=O)NC(CC1CC1)C(=O)C(=O)NCCS(=O)(=O)Cc1ccccc1)C2(C)C)C(C)(C)C (some centres unmarked) | 1 to 100 nM
CCCC(NC(=O)[C@@H]1[C@@H]2[C@H](CN1C(=O)[C@@H](NC(=O)OC(C)(C)C)C1Cc3ccccc3C1)C2(C)C)C(=O)C(=O)NCCC(=O)N1CCOCC1 (some centres unmarked) | 101 to 1000 nM
CC(C)(C)OC(=O)N[C@H](C(=O)N1C[C@H]2[C@@H]([C@H]1C(=O)NC(CC1CCC1)C(=O)C(=O)NC1CC1)C2(Cl)Cl)C(C)(C)C (some centres unmarked) | 101 to 1000 nM
C=CCCC(NC(=O)[C@@H]1[C@@H]2[C@H](CN1C(=O)[C@@H](NC(=O)OC(C)(C)C)C1CCC(=O)CC1)C2(C)C)C(=O)C(=O)NCCC(=O)OC(C)(C)C (some centres unmarked) | 1 to 100 nM
C=CCCC(NC(=O)[C@@H]1[C@@H]2[C@H](CN1C(=O)[C@@H](NC(=O)NC(C)(C)C)C1CCCCC1)C2(C)C)C(=O)C(=O)NCC(=O)OC(C)(C)C (some centres unmarked) | 101 to 1000 nM
CC(C)(C)NC(=O)N[C@H](C(=O)N1C[C@H]2[C@@H]([C@H]1C(=O)NC(CC1CCC1)C(=O)C(=O)NCC(=O)OC(C)(C)c1ccccc1)C2(C)C)C(C)(C)C (some centres unmarked) | 1 to 100 nM
CCCC(NC(=O)[C@@H]1[C@@H]2[C@H](CN1C(=O)[C@@H](NC(=O)OC(C)(C)C)C(C)(C)C)C2(C)C)C(=O)C(=O)NCC(=O)NC(C)(C)c1ccccc1 (some centres unmarked) | 101 to 1000 nM
CC(C)(OC(=O)N[C@H](C(=O)N1C[C@H]2[C@@H]([C@H]1C(=O)NC(CC1CCC1)C(=O)C(N)=O)C2(Cl)Cl)C1CCCCC1)C(F)(F)F (some centres unmarked) | 101 to 1000 nM
CC(C)(C)NC(=O)N[C@H](C(=O)N1C[C@H]2[C@@H]([C@H]1C(=O)NC(CC1CC1)C(=O)C(=O)NCCS(=O)(=O)Cc1ccccc1)C2(C)C)C(C)(C)C (some centres unmarked) | 1 to 100 nM
CCCC(NC(=O)[C@@H]1[C@@H]2[C@H](CN1C(=O)[C@@H](NC(=O)OC(C)(C)C(F)(F)F)C1CCCCC1)C2(Cl)Cl)C(=O)C(N)=O (some centres unmarked) | 1 to 100 nM
CC(C)(C)[C@H](NC(=O)OC(C)(C)C(F)(F)F)C(=O)N1C[C@H]2[C@@H]([C@H]1C(=O)NC(CC1CCC1)C(=O)C(N)=O)C2(Cl)Cl (some centres unmarked) | 1 to 100 nM
C=CCCC(NC(=O)[C@@H]1[C@@H]2[C@H](CN1C(=O)[C@@H](NC(=O)NC(C)(C)C)C(C)(C)C)C2(C)C)C(=O)C(=O)NCCC(=O)NC(C)(C)c1ccccc1 (some centres unmarked) | 101 to 1000 nM
CC(C)(C)NC(=O)N[C@H](C(=O)N1C[C@H]2[C@@H]([C@H]1C(=O)NC(CC1CCC1)C(=O)C(=O)NCC(=O)NCc1ccccc1)C2(Cl)Cl)C(C)(C)C (some centres unmarked) | 1 to 100 nM
C=CCNC(=O)C(=O)C(CCC)NC(=O)[C@@H]1[C@@H]2[C@H](CN1C(=O)C(NC(=O)OC1CC3CCC1(C)C3(C)C)C1CCCCC1)C2(C)C (some centres unmarked) | 101 to 1000 nM
CCCC(NC(=O)[C@@H]1[C@@H]2[C@H](CN1C(=O)[C@@H](NC(=O)NC(C)(C)C)C1CCCCC1)C2(C)C)C(=O)C(=O)NCC(=O)OC(C)(C)c1ccccc1 (some centres unmarked) | 1 to 100 nM
